# From article PMC4336329 (PLoS ONE, 2015)
# Screen size: about 310,000 compounds; about 2,200 (0.71%) showed an effect of 50% or more. The effect is printed as a negative number. The list shows a part of the results.
# Biological target: human ether-à-go-go-related gene (hERG) potassium channel (human, UniProt Q12809)
# Assay: primary screen, population patch clamp on CHO cells stably expressing hERG
# Chain of human ether-à-go-go-related gene (hERG) potassium channel (Q12809 whole entry, looked up): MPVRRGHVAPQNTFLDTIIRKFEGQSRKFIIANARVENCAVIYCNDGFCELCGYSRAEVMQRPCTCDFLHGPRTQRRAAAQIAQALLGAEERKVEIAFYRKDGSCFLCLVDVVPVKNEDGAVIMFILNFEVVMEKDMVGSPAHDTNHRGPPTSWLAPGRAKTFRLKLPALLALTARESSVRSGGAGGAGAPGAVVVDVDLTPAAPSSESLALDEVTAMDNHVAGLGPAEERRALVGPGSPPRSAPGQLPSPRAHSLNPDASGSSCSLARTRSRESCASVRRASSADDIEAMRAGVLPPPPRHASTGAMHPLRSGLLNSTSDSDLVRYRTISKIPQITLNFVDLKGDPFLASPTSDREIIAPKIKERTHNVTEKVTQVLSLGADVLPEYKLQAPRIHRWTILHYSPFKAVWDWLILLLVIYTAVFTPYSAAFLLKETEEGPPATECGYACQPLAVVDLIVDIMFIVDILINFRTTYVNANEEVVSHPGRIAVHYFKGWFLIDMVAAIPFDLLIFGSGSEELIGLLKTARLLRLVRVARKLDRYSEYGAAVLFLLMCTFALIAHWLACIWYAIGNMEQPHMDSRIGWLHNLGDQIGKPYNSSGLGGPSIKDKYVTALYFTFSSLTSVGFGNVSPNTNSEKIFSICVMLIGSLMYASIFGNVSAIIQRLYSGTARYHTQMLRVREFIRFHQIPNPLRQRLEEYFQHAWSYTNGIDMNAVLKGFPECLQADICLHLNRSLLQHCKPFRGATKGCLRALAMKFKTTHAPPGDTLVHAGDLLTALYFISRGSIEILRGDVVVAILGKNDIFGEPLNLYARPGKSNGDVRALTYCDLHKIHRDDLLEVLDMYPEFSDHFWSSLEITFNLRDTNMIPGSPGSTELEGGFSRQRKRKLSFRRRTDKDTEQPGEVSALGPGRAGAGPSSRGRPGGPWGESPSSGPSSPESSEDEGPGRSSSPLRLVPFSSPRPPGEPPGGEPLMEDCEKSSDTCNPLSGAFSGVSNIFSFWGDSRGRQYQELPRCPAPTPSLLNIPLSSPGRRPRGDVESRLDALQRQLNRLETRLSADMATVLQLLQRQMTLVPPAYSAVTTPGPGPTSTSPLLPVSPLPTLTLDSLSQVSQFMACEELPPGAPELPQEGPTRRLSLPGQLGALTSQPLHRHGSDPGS
row,Compound,"hERG current change (%, negative = inhibition) at 1uM"
1,O=C(CCNS(=O)(=O)c1ccc(Br)s1)NCc1ccccc1,10.8%
2,CCC(=O)Nc1ccc2c(c1)Cc1cc(NC(=O)CC)ccc1-2,13.4%
3,COc1ccnc(Oc2ccccc2)c1C(=O)N/C=N/OCc1ccc(F)cc1Cl,4.74%
4,CN(C)S(=O)(=O)c1cc(NC(=O)CSc2ncc(C(F)(F)F)cc2Cl)ccc1Cl,-0.599%
5,Cc1cc(C(=O)CSc2ncn[nH]2)c(C)n1-c1cccc(S(=O)(=O)N2CCOCC2)c1,9.69%
6,OC1CCCN(Cc2nc(Cc3ccccc3Cl)no2)C1 (stereo not shown),9.7%
7,N#Cc1c(NC(=O)Cn2cnc3ccccc3c2=O)oc(-c2ccccc2)c1-c1ccccc1,5.76%
8,COc1ccc(C(=O)N=c2sc3ccccc3n2C)cc1OC,6.97%
9,COC(=O)[C@@H](NC(=O)N1CCC(C)CC1)C(C)C,2.4%
10,COc1ccc(NC(=O)C2CC2)cc1OC1CCCC1,10.5%
11,CCCN(C(=O)c1cccs1)c1nnc(-c2ccncc2)s1,7.22%
12,CCC(=O)NCCSc1c[nH]c2ccccc12,5.02%
13,CCNC(=O)/C(C#N)=C/c1c(N2CCCCCC2)nc2ccccn2c1=O,2.33%
14,O=C(N/C(=C/C=C/c1ccccc1)C(=O)N1CCCCC1)c1ccc([N+](=O)[O-])cc1,-27.4%
15,CCc1nnc(NC(=O)C2CC(=O)N(C3CCCC3)C2)s1 (stereo not shown),13.5%
16,COc1ccc2c(c1)C(C)=CC(C)(C)N2S(=O)(=O)c1ccc(NC(C)=O)cc1,9.85%
17,CCOC(=O)C1C(=O)C(C(C)=O)C(=O)CC1CC(C)SCC (stereo not shown),7.64%
18,Cc1coc2c(C)c3oc(=O)c(CCC(=O)N[C@@H](C)C(=O)N[C@@H](Cc4ccccc4)C(=O)O)c(C)c3cc12,4.42%
19,C=CCN(c1nc(C)c(Br)c(OC)n1)S(=O)(=O)c1ccc(C)cc1,14.4%
20,COc1ccc(-c2ccc(-c3noc(-c4ccccc4)n3)c(OC)n2)cc1,0.351%
21,O=S(=O)(Nn1cnnc1)c1ccccc1,1.68%
22,Brc1ccc(-c2nnc3n2CCCCC3)cc1,3.62%
23,CC(=O)NCCc1ccc(C(=O)Cn2cnc3ccccc3c2=O)cc1,15%

row,Compound,"hERG current change (%, negative = inhibition) at 1uM"
1,COC(=O)CSc1nnc(-c2cccs2)n1-c1ccc(Cl)cc1,-16%
2,COCCNC(=O)C(C#N)c1nc2ccccc2nc1N1CCCCCC1 (stereo not shown),3.63%
3,Cc1noc(C)c1S(=O)(=O)Nc1cccc(CO)c1,7.91%
4,CC(=O)C1=C(C)NC(C)=C(C(C)=O)C1c1ccccc1,6.75%
5,O=C(O)c1cc(=O)[nH]c2c(Cl)cccc12,3.95%
6,Cc1ccccc1-c1nnn(Cc2ccc(-c3nn[nH]n3)cc2)n1,5.38%
7,COC(=O)CSc1nc2sc3c(c2c(=O)n1C1CCCCC1)CCN(C)C3,6.3%
8,CC(=O)Nc1ccc(NC(=O)c2ccccc2CCc2ccccc2)cc1,3.98%
9,O=C(Cn1c(=O)oc2cc(S(=O)(=O)N3CCCCC3)ccc21)N1CCc2ccccc21,1.8%
10,O=c1c2ccccc2[nH]c(=S)n1CCc1ccccc1,17.9%
11,O=c1c([N+](=O)[O-])cccn1Cc1cccc(Br)c1,10.7%
12,Brc1ccccc1OCCCCn1cnc2ccccc21.Cl,14.2%
13,COc1ccccc1NS(=O)(=O)c1cccc(C(=O)N2CC(C)OC(C)C2)c1 (stereo not shown),2.84%
14,O=C(Cn1c(C(F)(F)F)nc2ccccc21)Oc1cccc(C(F)(F)F)c1,-5.22%
15,Cc1ccccc1CCN(C(=O)Cn1nnc2ccccc21)C(C(=O)NCC1CCCO1)c1nc2ccccc2n1C (stereo not shown),13.8%
16,Cc1[nH]c2ccccc2c1C(=O)CSc1n[nH]c(N)n1,1.64%
17,CC(=O)c1cccc(NC(=O)NCCc2ccc(Cl)cc2)c1,11.3%
18,Cc1cc(N2C(=O)C3CCC(c4ccccc4)CC3C2=O)no1 (stereo not shown),21.4%
19,Cn1c(C(=O)NCCc2ccccc2)cc(=O)n(C)c1=O,3.57%
20,CN(C)CCNc1ncnc2c1cnn2-c1ccc(Cl)cc1,5.11%
21,O=c1cc(N2CCOCC2)[nH]c(=O)n1C1CCCCC1,15.4%
22,CCC(C)C(=O)Nc1ccc([N+](=O)[O-])cc1OC (stereo not shown),13.8%
23,O=C(CSc1ncnc2c1cnn2-c1ccccc1)Nc1ccc2c(c1)OCO2,16.6%

row,Compound,"hERG current change (%, negative = inhibition) at 1uM"
1,COc1ccc(C(=O)OCC(=O)c2ccc(Cl)s2)c(OC)c1OC,11.8%
2,CN1C(=O)Cc2cc(S(=O)(=O)NCCc3ccc(Cl)cc3)ccc21,-2.7%
3,Cc1ccc(-c2cc(C(=O)N3CCCC3)c3ccccc3n2)s1,13.1%
4,CCCCSc1nc(C)c(CC(=O)O)c(=O)[nH]1,10.1%
5,CC1(C)CC(=O)C(C=NCC2CCCO2)=C(O)C1 (stereo not shown),9.01%
6,O=C(N/N=C/c1ccco1)c1cc(-c2cccc3ccccc23)n[nH]1,9.96%
7,O=C(NC(=S)Nc1cccc(C(F)(F)F)c1)c1ccc2nonc2c1,13.4%
8,CCOC(=O)SC1=N/C(=C\c2ccc(N(C)C)cc2)C(=O)S1,9.35%
9,Cn1c(=O)oc2cc(S(=O)(=O)Nc3ccc4c(c3)OCO4)ccc21,9.9%
10,Fc1ccc(OCc2nc3ccccc3s2)cc1,12%
11,CCCc1ncc(CN2CCCCC2C(=O)Nc2ccc(Oc3ccccc3)nc2)cn1 (stereo not shown),12.1%
12,O=C(Cn1nc(C(F)(F)F)cc1C1CC1)Nc1ccccc1F,16.1%
13,O=C(NCCN1CCCC1)c1ccc(CS(=O)(=O)c2c(Cl)cccc2Cl)o1,-20.3%
14,Cc1nnc2ccc(-c3ccc(NS(=O)(=O)c4ccc(Cl)s4)cc3)nn12,7.12%
15,C/C(=N\NC(=O)c1c[nH]c2ccccc12)c1ccc(C)o1,1.87%
16,COCc1nc(-c2ccc(-c3ccccc3)nc2OC)no1,10.1%
17,COc1ccc2oc(C(=O)N3CCc4ccccc43)c(C)c2c1,16.2%
18,Cc1ccc(C)c(NC(=S)NC23CN4CN(CN(C4)C2)C3)c1,7.99%
19,CCc1nnc(SCC(=O)Nc2ccccc2)nc1CC,-0.373%
20,O=C(Nc1ccccc1-c1ccccc1NC(=O)c1ccco1)c1ccco1,10.8%
21,Cc1c(NC(=O)c2cccc(NC(=O)Cc3ccccc3F)c2)c(=O)n(-c2ccccc2)n1C,12.1%
22,Cc1c(OCC(=O)Nc2cccnc2)ccc2c3c(c(=O)oc12)CCC3,20.4%
23,COc1ccccc1NC1=C(N2CCCCC2)C(=O)c2ccccc2C1=O,-1.15%

row,Compound,"hERG current change (%, negative = inhibition) at 1uM"
1,CCOC(=O)N1CCN(C(=O)COC(=O)C2CCN(S(=O)(=O)c3c(Cl)cccc3Cl)CC2)CC1,4.61%
2,CCOC(=O)c1sc(N)nc1C(C)(C)C,7.8%
3,Cc1ccc(C2(C)NC(=O)N(CC(=O)Nc3ccc(S(=O)(=O)Nc4nccs4)cc3)C2=O)cc1 (stereo not shown),11.1%
4,COc1cccc(NC(=O)CSc2nnc(Cc3ccc(C)cc3)c(=O)n2N)c1,-11.3%
5,CC1C(O)=C(c2nc3ccccc3[nH]2)C(=N)N1c1ccccc1 (stereo not shown),-8.29%
6,COc1cc(OC)c2c(-c3ccccc3)cc(=O)oc2c1C(CC(=O)N1CCOCC1)c1ccc2c(c1)OCO2 (stereo not shown),11.5%
7,CN(C)c1cccc(C(=O)OCC(=O)NC2CCCC2)c1,17.6%
8,Cc1cccnc1NC(=O)Nc1cccc(Cl)c1,6.83%
9,COc1cc(C(=O)N2CCN(C(=O)C3CCCO3)CC2)cc(OC)c1OC (stereo not shown),3.81%
10,Cc1ccc(Cn2c(Cc3ccccc3)nc3ccccc32)cc1,1.76%
11,O=C(CSc1nnc([C@@H]2CCCN2)o1)c1ccc(Cl)cc1,-5.24%
12,CCOc1ccc(CC(=O)OCn2nnc3ccccc3c2=O)cc1,3.58%
13,COc1ccc(CNC(=O)CCSCc2cccc(Cl)c2)cc1,2.33%
14,O=C(Nc1ccc2c(c1)OCO2)c1ccc(Cl)s1,0.696%
15,O=C(Nc1ccccc1N1CCCCC1)c1ccc(F)cc1,9.26%
16,Cn1ncc([N+](=O)[O-])c1C(=O)Nc1nc2ccccc2n1CCN1CCCCC1,-10.7%
17,O=c1ccc2ccc(OCc3nnc(-c4ccccc4Br)o3)cc2o1,6.11%
18,COc1cc(/C=N/N=C(N)N)ccc1OCc1ccccc1Cl,-11%
19,COc1ccc(CCN2C(=O)CC(NNC(=O)c3ccccc3Br)C2=O)cc1 (stereo not shown),-0.79%
20,Cc1ccc2[nH]c3c(c2c1)CCN(C)C3,6.89%
21,CC(=O)N(c1nnc(-c2ccc(C)cc2)s1)C1CCCC1,6.29%
22,COc1ccccc1N(C(=O)CNC(=O)c1ccco1)C(C(=O)NC1CCCC1)c1ccco1 (stereo not shown),7.39%
